From DBAASP
Values after ≈ are worked out from the molar mass of the structure shown. One block for each compound: values may come before it.

What was measured:
Experiment in all cases: ≥ marks a high value that may be exact or a test limit, other limits are often not marked
[1] = system: Aerococcus viridans
[2] = system: Bacillus megaterium NCIB 9376
[3] = system: Bacillus megaterium
[4] = system: Bacillus subtilis NCIB 6276
[5] = system: Candida albicans NCPF 2082
[6] = system: Enterobacter cloacae NCTC 10005
[7] = system: Enterobacter cloacae beta-12
[8] = system: Escherichia coli K-12 D31
[9] = system: Klebsiella pneumoniae NCTC 8805
[10] = system: Micrococcus luteus NCTC 2665
[11] = system: Micrococcus luteus
[12] = system: Pseudomonas aeruginosa NCTC 10662
[13] = system: Serratia marcescens NCTC 1377
[14] = system: Staphylococcus aureus NCTC 8178
[15] = system: Helicobacter pylori ATCC 43504
[16] = system: Escherichia coli K-12
[17] = system: Pseudomonas aeruginosa PA214
[18] = system: Pseudomonas aeruginosa PA330
[19] = system: Pseudomonas aeruginosa PA380
[20] = system: Pseudomonas aeruginosa PAO1
[21] = system: Bacillus subtilis
[22] = system: Enterococcus faecalis
[23] = system: Escherichia coli O111:B4
[24] = system: Pseudomonas aeruginosa H103
[25] = system: Salmonella typhimurium C610
[26] = system: Staphylococcus aureus K147
[27] = system: Staphylococcus aureus SAP 0017
[28] = system: Staphylococcus epidermidis
[29] = system: Corynebacterium xerosis
[30] = system: Enterococcus faecalis ATCC 29212
[31] = system: Escherichia coli UB1005
[32] = system: Listeria monocytogenes
[33] = system: Pseudomonas aeruginosa K799
[34] = system: Salmonella enterica subsp. enterica serovar Typhimurium ATCC 14028s
[35] = system: Staphylococcus aureus ATCC 25923
[36] = system: Staphylococcus epidermidis C621
[37] = system: Streptococcus mitis
[38] = system: Streptococcus pneumoniae ATCC 49619
[39] = system: Streptococcus pyogenes ATCC 19615
[40] = system: Bacillus amyloliquefaciens ATCC 23842
[41] = system: Bacillus cereus ATCC 14579
[42] = system: Bacillus licheniformis ATCC 14580
[43] = system: Bacillus subtilis ATCC 6051
[44] = system: Enterococcus faecalis 1F-1
[45] = system: Enterococcus faecium 5F-10
[46] = system: Escherichia coli ATCC 25922
[47] = system: Proteus mirabilis ATCC 35659
[48] = system: Salmonella enterica ATCC H9812
[49] = system: Staphylococcus aureus ATCC 29213
[50] = system: Escherichia coli KpC+001812446
[51] = system: Escherichia coli KpC+002101123
[52] = system: Klebsiella pneumoniae ATCC 13883
[53] = system: Klebsiella pneumoniae KpC+001825971
[54] = system: Pseudomonas aeruginosa ATCC 27853
[55] = system: Staphylococcus aureus MR

Structure (SMILES): CC[C@H](C)[C@@H]1NC(=O)[C@@H]2CSSC[C@@H](C(=O)N[C@@H](CCCN=C(N)N)C(=O)N[C@@H](CC(N)=O)C(=O)O)NC(=O)[C@H](C(C)C)NC(=O)[C@@H]3CSSC[C@H](NC(=O)[C@H](C)NC(=O)[C@H](CO)NC(=O)[C@H](CC(=O)O)NC(=O)CNC(=O)[C@H](C(C)C)NC(=O)CNC(=O)[C@H](Cc4ccccc4)NC(=O)CNC(=O)[C@H](CO)NC(=O)[C@H](CC(C)C)NC(=O)[C@H](CC(C)C)NC(=O)[C@H](CC(=O)O)NC(=O)[C@@H](NC(=O)[C@@H](NC(=O)[C@H](C)N)[C@@H](C)O)CSSC[C@H](NC(=O)[C@H](Cc4ccc(O)cc4)NC(=O)CNC(=O)CNC(=O)[C@H](CCCN=C(N)N)NC(=O)[C@H](CC(N)=O)NC(=O)CNC(=O)[C@H](CCCN=C(N)N)NC(=O)[C@H](C)NC1=O)C(=O)N[C@@H](CC(N)=O)C(=O)N[C@@H](CO)C(=O)N[C@@H](CCCCN)C(=O)N[C@@H](CCCCN)C(=O)N[C@@H](C(C)C)C(=O)N3)C(=O)N[C@@H](C)C(=O)N[C@@H](C)C(=O)N[C@@H](Cc1cnc[nH]1)C(=O)N2 [ATCDLLSGFGVGDSACAAHCIARGNRGGYCNSKKVCVCRN]
MIC [1]: 0.849 µM (≈ 3.46 µg/mL)
MIC [2]: 2.35 µM (≈ 9.59 µg/mL)
MIC [3]: 0.849 µM (≈ 3.46 µg/mL)
MIC [4]: 8.14 µM (≈ 33.2 µg/mL)
MIC [5]: 12.3 µM (≈ 49.9 µg/mL)
MIC [6]: 12.3 µM (≈ 49.9 µg/mL)
MIC [7]: 1.7 µM (≈ 6.91 µg/mL)
MIC [8]: ≥ 49 µM
MIC [9]: 12.3 µM (≈ 49.9 µg/mL)
MIC [10]: 2.99 µM (≈ 12.2 µg/mL)
MIC [11]: 0.849 µM (≈ 3.46 µg/mL)
MIC [12]: 12.3 µM (≈ 49.9 µg/mL)
MIC [13]: 12.3 µM (≈ 49.9 µg/mL)
MIC [14]: 14.2 µM (≈ 57.9 µg/mL)

Structure (SMILES): CC[C@H](C)[C@H](NC(=O)[C@H](C)NC(=O)[C@H](CO)NC(=O)[C@H](CC(C)C)NC(=O)[C@@H](N)Cc1ccccc1)C(=O)N[C@H](C(=O)NCC(=O)N[C@@H](CCSC)C(=O)N[C@@H](CC(C)C)C(=O)N[C@@H](C)C(=O)N[C@@H](CCCCN)C(=O)N[C@@H](CC(C)C)C(=O)N[C@@H](Cc1ccccc1)C(N)=O)C(C)C [FLSAIVGMLAKLF]
MIC [15]: ≥ 50 µM

Structure (SMILES): CC(C)C[C@H](NC(=O)[C@H](C)NC(=O)[C@H](CCCCN)NC(=O)[C@H](Cc1ccccc1)NC(=O)[C@H](CC(C)C)NC(=O)[C@H](CCCCN)NC(=O)[C@H](C)NC(=O)[C@H](Cc1c[nH]c2ccccc12)NC(=O)[C@H](C)NC(=O)[C@H](CCCCN)NC(=O)[C@H](CC(C)C)NC(=O)[C@H](Cc1ccccc1)NC(=O)[C@H](C)NC(=O)[C@H](CCCCN)NC(=O)[C@H](CC(C)C)NC(=O)[C@H](CCCCN)NC(=O)[C@@H](N)CCCCN)C(N)=O [KKLKAFLKAWAKLFKAL]
MIC [16]: 1.6 µM (≈ 3.21 µg/mL)
MIC [17]: 3.1 µM (≈ 6.21 µg/mL)
MIC [18]: 6.3 µM (≈ 12.6 µg/mL)
MIC [19]: 1.5 µM (≈ 3.01 µg/mL)
MIC [20]: 3.1 µM (≈ 6.21 µg/mL)

Structure (SMILES): CC(C)C[C@H](NC(=O)[C@H](CC(C)C)NC(=O)[C@H](CCC(=O)O)NC(=O)[C@H](CC(=O)O)NC(=O)[C@@H](NC(=O)[C@H](CCCN=C(N)N)NC(=O)[C@@H](N)CO)C(C)C)C(=O)O [SRVDELL]
MIC [40]: ≥ 154 µM
MIC [41]: ≥ 154 µM
MIC [42]: ≥ 154 µM
MIC [43]: ≥ 154 µM
MIC [44]: ≥ 154 µM
MIC [45]: ≥ 154 µM
MIC [46]: > 154 µM
MIC [47]: ≥ 154 µM
MIC [20]: > 154 µM
MIC [48]: ≥ 154 µM
MIC [49]: > 154 µM

More lines, now with the values ahead:

MIC [21]: ≥ 46.5 µM
MIC [22]: ≥ 46.5 µM
MIC [23]: 11.6 µM (≈ 32 µg/mL)
MIC [24]: ≥ 46.5 µM
MIC [25]: 5.82 µM (≈ 16 µg/mL)
MIC [26]: ≥ 46.5 µM
MIC [27]: ≥ 46.5 µM
MIC [28]: ≥ 46.5 µM
Structure (SMILES): CC[C@H](C)[C@H](NC(=O)[C@H](C)NC(=O)[C@@H]1CCCN1C(=O)CNC(=O)[C@H](C)NC(=O)[C@@H](NC(=O)[C@H](CCCCN)NC(=O)[C@H](CC(C)C)NC(=O)CNC(=O)[C@H](CCC(N)=O)NC(=O)[C@H](CC(C)C)NC(=O)[C@H](C)NC(=O)[C@H](CCCN=C(N)N)NC(=O)[C@H](CCCN=C(N)N)NC(=O)[C@H](Cc1c[nH]c2ccccc12)NC(=O)[C@H](Cc1c[nH]c2ccccc12)NC(=O)[C@H](CCCCN)NC(=O)[C@@H](N)CCCCN)[C@@H](C)O)C(=O)N[C@@H](CCC(N)=O)C(=O)N[C@@H](CO)C(=O)N[C@H](C(=O)N[C@@H](CC(C)C)C(=O)N[C@@H](CC(N)=O)C(=O)N[C@@H](CCCCN)C(=O)O)C(C)C [KKWWRRALQGLKTAGPAIQSVLNK]

MIC [29]: 1.01 µM (≈ 2 µg/mL)
MIC [30]: > 32.3 µM
MIC [31]: ≥ 32.3 µM
MIC [32]: 2.02 µM (≈ 4 µg/mL)
MIC [33]: ≥ 32.3 µM
MIC [34]: ≥ 32.3 µM
MIC [35]: > 32.3 µM
MIC [36]: 16.1 µM (≈ 32 µg/mL)
MIC [37]: 1.01 µM (≈ 2 µg/mL)
MIC [38]: ≥ 32.3 µM
MIC [39]: 16.1 µM (≈ 32 µg/mL)
Structure (SMILES): CC[C@H](C)[C@H](NC(=O)[C@H](CCCN=C(N)N)NC(=O)[C@H](CS)NC(=O)[C@H](CC(C)C)NC(=O)[C@H](CCCN=C(N)N)NC(=O)[C@@H](N)CCCN=C(N)N)C(=O)N[C@H](C(=O)N[C@@H](Cc1c[nH]c2ccccc12)C(=O)N[C@H](C(=O)N[C@H](C(=O)N[C@@H](CCCN=C(N)N)C(=O)N[C@H](C(=O)N[C@@H](CS)C(=O)N[C@@H](CCCN=C(N)N)C(=O)N[C@@H](CCCN=C(N)N)C(=O)O)C(C)C)[C@@H](C)CC)C(C)C)C(C)C [RRLCRIVWVIRVCRR]

MIC [46]: > 33 µM
MIC [50]: ≥ 33 µM
MIC [51]: 16 µM (≈ 31.4 µg/mL)
MIC [52]: ≥ 33 µM
MIC [53]: ≥ 33 µM
MIC [54]: > 33 µM
MIC [35]: 4 µM (≈ 7.86 µg/mL)
MIC [55]: 16 µM (≈ 31.4 µg/mL)
Structure (SMILES): CC[C@H](C)[C@H](NC(=O)[C@@H](N)C(C)C)C(=O)N[C@@H](Cc1cnc[nH]1)C(=O)NCC(=O)N[C@@H](CC(C)C)C(=O)N[C@@H](Cc1ccccc1)C(=O)N[C@@H](CC(=O)O)C(=O)N[C@H](C(=O)N[C@H](C(=O)N[C@@H](CCCCN)C(=O)N[C@@H](CCCCN)C(=O)N[C@H](C(=O)N[C@@H](C)C(=O)N[C@@H](CO)C(=O)N[C@H](C(=O)N[C@H](C(=O)NCC(=O)NCC(=O)N[C@@H](CC(C)C)C(N)=O)[C@@H](C)CC)C(C)C)C(C)C)[C@@H](C)CC)C(C)C [VIHGLFDVIKKVASVIGGL]
